Assay results published in paper PMC4336329 (PLoS ONE, 2015).
Among all 310,000 compounds or so, about 2,200 (0.71%) showed an effect of 50% or more. Effects have a minus sign here. Some of the results follow.

Molecular target: human ether-à-go-go-related gene (hERG) potassium channel (human, UniProt Q12809)
Assay: primary screen, population patch clamp on CHO cells stably expressing hERG

Chain of human ether-à-go-go-related gene (hERG) potassium channel (Q12809 whole entry, looked up): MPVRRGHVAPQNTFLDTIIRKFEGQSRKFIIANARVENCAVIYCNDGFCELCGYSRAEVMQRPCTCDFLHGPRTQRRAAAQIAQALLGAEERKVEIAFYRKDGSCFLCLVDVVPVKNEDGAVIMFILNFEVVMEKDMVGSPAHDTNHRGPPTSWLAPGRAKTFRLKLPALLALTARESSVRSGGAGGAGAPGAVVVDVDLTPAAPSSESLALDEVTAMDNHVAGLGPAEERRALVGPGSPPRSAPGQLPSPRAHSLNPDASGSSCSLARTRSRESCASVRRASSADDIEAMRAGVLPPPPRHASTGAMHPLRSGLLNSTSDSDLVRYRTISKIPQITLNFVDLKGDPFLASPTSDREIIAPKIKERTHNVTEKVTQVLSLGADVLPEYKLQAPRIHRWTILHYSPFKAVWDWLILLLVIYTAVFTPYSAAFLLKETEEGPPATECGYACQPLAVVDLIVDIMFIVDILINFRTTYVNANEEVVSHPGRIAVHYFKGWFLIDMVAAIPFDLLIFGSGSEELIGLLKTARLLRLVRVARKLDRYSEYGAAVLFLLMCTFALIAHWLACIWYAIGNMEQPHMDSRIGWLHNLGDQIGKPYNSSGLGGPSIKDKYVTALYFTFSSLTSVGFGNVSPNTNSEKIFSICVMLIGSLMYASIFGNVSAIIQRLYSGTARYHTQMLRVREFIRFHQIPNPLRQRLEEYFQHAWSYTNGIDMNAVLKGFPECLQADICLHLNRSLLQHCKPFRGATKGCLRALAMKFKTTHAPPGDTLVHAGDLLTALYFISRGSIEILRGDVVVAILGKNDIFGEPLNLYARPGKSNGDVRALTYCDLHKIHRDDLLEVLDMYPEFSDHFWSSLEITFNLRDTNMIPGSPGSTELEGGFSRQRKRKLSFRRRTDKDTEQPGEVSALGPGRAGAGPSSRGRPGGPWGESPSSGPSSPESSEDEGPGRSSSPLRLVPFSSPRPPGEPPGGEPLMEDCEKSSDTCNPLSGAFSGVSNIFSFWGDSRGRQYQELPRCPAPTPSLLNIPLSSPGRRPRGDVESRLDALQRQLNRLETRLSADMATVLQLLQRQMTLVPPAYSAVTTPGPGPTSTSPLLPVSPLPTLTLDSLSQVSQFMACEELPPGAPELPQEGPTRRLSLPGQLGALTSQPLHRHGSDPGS

| Structure (SMILES) | hERG current change (%, negative = inhibition) at 1uM |
| --- | --- |
| Oc1ccc[n+](/C=C\c2ccccc2)c1.[Br-] | -0.393% |
| CN(C)S(=O)(=O)N1CCN(CC(O)COc2ccc(C(=O)c3ccccc3)cc2)CC1 (centres unmarked) | -18.7% |
| O=c1c(C(c2nnnn2C2CCCCC2)N2CCCCC2)coc2ccc(Cl)cc12 (centres unmarked) | 5.59% |
| Cc1cc(NC(=O)CSc2c3c(nc4ccccc24)CCC3)no1 | 4.4% |
| CCOC(=O)c1c(CN(CC)CC)n(-c2ccccc2)c2ccc(O)cc12 | -45.6% |
| CCCCCCn1cc(C(=O)O)c(=O)c2cc(F)c(N3CCN(C)CC3)cc21 | 10.8% |
| Cc1ccc(Cn2c(N3CCCCCC3)nc3c2c(=O)[nH]c(=O)n3C)cc1 | 2.45% |
| CCc1nn(C(C)C(=O)NCc2ccc(Cl)cc2)c(=O)c2cc3occc3n12 (centres unmarked) | -5.89% |
| CCOC(=O)N1CCC(Nc2nc(OC)nc(OC)n2)CC1 | 8.42% |
| O=C(CN1CCN(c2ccccn2)CC1)NC1CCCCC1 | 3.79% |
| CSCC(=O)NC1CCCN(C2Cc3ccccc3C2)C1 (centres unmarked) | 8.45% |
| Cl.O=C(/C=C/c1ccc(Br)o1)NCCCN1CCOCC1 | 7.21% |
| CCOc1ccccc1NC(=O)Nc1ccc(OC)nc1 | 10% |
| CCNC(=S)N1CCC(NC(=O)c2ccco2)CC1 | 9.57% |
| CCn1nc(C)c(Oc2ccccc2O)c1C | 12.6% |
| Cc1ccc(S(=O)(=O)N/N=c2\sc3ccccc3n2C)cc1 | 2.88% |
| CN(CC1CCOCC1)C(=O)CC1C(=O)NCCN1Cc1ccc(F)c(F)c1 (centres unmarked) | 12.5% |
| CC(C)C(NC(=O)c1ccccc1)C(=O)N/N=C\c1ccco1 (centres unmarked) | 16.7% |
| O=C(NC(=S)N1CCN(C(c2ccccc2)c2ccccc2)CC1)c1ccc(S(=O)(=O)N2CCOCC2)cc1 | -3.63% |
| c1ccc(-c2nccc(-c3ccco3)n2)nc1 | 1.91% |
| Cc1cccc(-c2nnc3sc(-c4ccccc4C)nn23)c1 | 11.6% |
| O=C(c1cc(=O)c2ccccc2o1)N1CCN(c2cccc(Cl)c2)CC1 | -9.23% |
| COc1ccccc1-n1c(=O)c2c3c(sc2n2c(=S)[nH]nc12)CCC3 | 8.1% |

| Structure (SMILES) | hERG current change (%, negative = inhibition) at 1uM |
| --- | --- |
| COc1ccc(C(C)=O)cc1COC(=O)c1c(C)nn(-c2ccccc2)c1C | 8.11% |
| CCCC(c1nnnn1CC(=O)OCC)N(Cc1cc2ccc(C)cc2[nH]c1=O)C1CCCC1 (centres unmarked) | 9.02% |
| Cc1cc(=O)oc2cc(OC(C)C(=O)NCCCn3ccnc3)ccc12 (centres unmarked) | 11.7% |
| CN(CC(=O)Nc1cccc(F)c1)C(=O)C1=COCCO1 | 12.5% |
| Cc1nnsc1S(=O)(=O)c1ccccc1 | 13% |
| O=c1[nH]c(/C=C\c2ccc(O)c(Cl)c2)nc(O)c1[N+](=O)[O-] | 15.1% |
| COc1cccc(CN(CC(=O)NC2CCCC2)C(=O)Cn2nnc(-c3cccs3)n2)c1 | -2.33% |
| CCOc1ccccc1-c1nc(CN(Cc2cnn(C)c2)C(C)C)c(C)o1 | 2.34% |
| CNCc1ccccc1Sc1cc(O)ccc1O.O=C(O)/C=C\C(=O)O | 0.899% |
| CCN(CC)c1ccc(NC(=O)CCS(=O)(=O)c2ccc(Br)cc2)c(C)c1 | 4.74% |
| Nc1ccccc1SC1CC(=O)N(c2ccccc2Cl)C1=O (centres unmarked) | 15.2% |
| COc1ccc2nc(C)cc(SCC(=O)N/N=C/c3ccc(O)cc3O)c2c1 | 11.1% |
| C(=N\Nc1ccc2ccccc2n1)/c1ccc2c(c1)OCO2 | 4.64% |
| O=C(O)/C=C/C(=O)NNc1ncnc2ccccc12 | 11.3% |
| O=C(Nc1ccccc1N1CCCC1)C1CCN(C(=O)c2ccc(F)cc2)CC1 | -2.69% |
| O=C(O)C1C2C=CC(C2)C1C(=O)NC(c1ccccc1)c1ccccc1 (centres unmarked) | -6.68% |
| CCNC(=S)N1CCN(C(=O)C(Cc2ccccc2)NC(C)=O)CC1 (centres unmarked) | 6.07% |
| N#C/C(C(=O)Nc1ccc(Cl)cc1)=C(/S)Nc1ccccc1 | 16.8% |
| COC(=O)C1=C(C)N(Cc2ccccc2)C(=S)N[C@H]1c1cccc(F)c1 | 3.22% |
| COc1ccc(CCNc2ncnc3sc(C)cc23)cc1OC.Cl | 9.79% |
| CC(=O)Nc1ccc(S(=O)(=O)NCCCCNS(=O)(=O)c2ccc(NC(C)=O)cc2)cc1 | 30.1% |
| CC(C)(CN=C1NS(=O)(=O)c2ccccc21)CNC(=O)CN1C(=O)c2ccccc2C1=O | -1.01% |
| Cc1cc(O)ccc1N=Cc1c(C(F)(F)F)[nH][nH]c1=O | 9.76% |

| Structure (SMILES) | hERG current change (%, negative = inhibition) at 1uM |
| --- | --- |
| CCC(NC(=O)c1cccc(Cn2cc([N+](=O)[O-])cn2)c1)c1ccc(C(C)C)cc1 (centres unmarked) | 15.5% |
| CC(=O)c1ccc(S(=O)(=O)Nc2ccc(-c3ccc4nncn4n3)cc2)cc1 | 0.626% |
| CC(C)(C)CC(C)(C)N1CNC(=S)NC1 | 10.7% |
| O=C(c1cccnc1)N1CCc2ccccc2C1 | 10.6% |
| CC(=O)c1ccc(N2CCN(CC(=O)N(CC(C)C)c3c(N)n(CC(C)C)c(=O)[nH]c3=O)CC2)cc1 | 13.7% |
| O=C(/C=C/c1ccc(F)cc1)NC(=S)Nc1ccccc1 | -2.57% |
| CC1CN(c2ccc(C(=O)c3ccccc3C(=O)O)cc2[N+](=O)[O-])CC(C)O1 (centres unmarked) | 8.41% |
| O=C(Nc1ccccc1N1CCOCC1)c1ccc2c(c1)OCO2 | 2.69% |
| CC(NC(=O)NCc1cccnc1)(C(F)(F)F)C(F)(F)F | 16.6% |
| CCOC(=O)Nc1cccc(C(=O)O)c1 | 3.58% |
| CC(C)C[C@@H](CO)NC(=O)CC[C@H](NC(=O)OC(C)(C)C)C(=O)N(Cc1ccccc1)Cc1ccccc1 | 16% |
| Nc1nnnn1/N=C/c1ccc(Cl)cc1 | 6.7% |
| CCCC(NS(=O)(=O)c1ccc(OC)cc1)C(=O)O (centres unmarked) | 9.82% |
| Br.COc1ccc(-c2nc3n(c2C)CCC3)cc1 | -2.17% |
| CC(=O)c1cccc(N(C(=O)CS(=O)CC(=O)Nc2ccc(F)cc2)C(C(=O)NC2CCCCC2)c2ccc(C)o2)c1 (centres unmarked) | 9.67% |
| N#Cc1ccc(C(=O)NCC2CCCCC2)cc1 | 2.28% |
| O=c1oc2ccccc2c(O)c1C(c1ccccn1)c1c(O)c2ccccc2oc1=O | 17.3% |
| O=C(NCc1cccnc1)c1cccc(S(=O)(=O)N2CCOCC2)c1 | 14.4% |
| N#CC(C#N)=C(Nc1ccc(F)cc1)SCc1cccc(F)c1 | 3.39% |
| CC(=O)c1cccc(NC(=O)CCCN(C)S(=O)(=O)c2ccc(F)cc2)c1 | 15.1% |
| CCc1ccc(C(=O)COC(=O)CNC(=O)c2ccc(Br)o2)cc1 | -10.3% |
| CCCNC(=O)CSc1nc(COc2ccccc2)nc2ccccc12 | 4.6% |
| O=C(Nc1ccc(F)cc1)C1CC(=O)N(Cc2ccco2)C1 (centres unmarked) | 7.85% |

| Structure (SMILES) | hERG current change (%, negative = inhibition) at 1uM |
| --- | --- |
| O=C1c2sc3nc4n(c(=O)c3c2CCC1Br)CCCCC4 (centres unmarked) | 8.13% |
| Cc1ccc(OCC(=O)Nc2sc3c(c2C#N)CCC3)cc1C | 4.44% |
| COCc1nnc(NC(=O)c2ccc(S(=O)(=O)N(C)c3ccccc3)cc2)o1 | 14.1% |
| O=C(NCC(=O)N(CCc1ccccc1)C(C(=O)NC1CCCCC1)c1ccncc1)c1ccco1 (centres unmarked) | -24.1% |
| C/C(=N\NC(=O)C(=O)Nc1cc(C)ccc1C)c1ccncc1 | 8.67% |
| CCc1ccc(N(C(=O)c2ccco2)C(C(=O)NC2CCCC2)c2ccncc2)cc1 (centres unmarked) | 3.89% |
| COc1cc(OC)nc(N/N=C(\c2ccccc2)c2ccncc2)n1 | -0.121% |
| COC(=O)c1ccc(NC(=O)Cn2c([N+](=O)[O-])cnc2C)cc1 | 5.29% |
| Cc1ccc2nc(-c3ccc(N4C(=NC(=O)CCC(=O)O)SC5CS(=O)(=O)CC54)cc3)sc2c1 (centres unmarked) | 2.33% |
| c1ccc(C2CCC3(CC2)Oc2ccccc2C2CC(c4cccnc4)=NN23)cc1 (centres unmarked) | 6.45% |
| COc1cc2c(cc1NC(=O)C(C)NCc1ccccc1)oc1ccccc12 (centres unmarked) | 8.93% |
| O=C(OCC#CCSc1nnc(-c2ccccc2)o1)c1ccco1 | 12.6% |
| COC(=O)[C@]1(CC(C)C)N[C@H](c2ccc(SC3CCCCC3)c(OC)c2)[C@@H]2C(=O)N(C)C(=O)[C@@H]21.O=C(O)C(F)(F)F | 7.7% |
| CSc1nc2ccccc2n1CC(=O)Nc1c(C)n(C)n(-c2ccccc2)c1=O | 9.92% |
| CCOc1ccc(N2C(=O)c3cccnc3C2=O)cc1 | 12.1% |
| CC(C)[C@H]1COCCS(=O)(=O)N1Cc1ccccc1F | 8.68% |
| CCOC(=O)Cn1nc(-c2ccc(F)cc2)oc1=O | 0.298% |
| CCOC(=O)c1c(C)nc2c(c1-c1ccc(OC)cc1)C(=O)CC(C)(C)C2 | 7.75% |
| NC(=S)Nc1cccc(Cl)c1 | 14.2% |
| Cc1nc(SCc2ccccc2)nc2c1CCC2 | 10.1% |
